Our source for the nuclei count values is the supplement of paper PMC8183993.

Structures are written as SMILES. Where a name gives a salt, the structure may show the parent alone. ± gives the standard deviation of the averaged measurements. Over roughly 3,200 compounds, “nuclei count (viability) relative to DMSO” has its median near 99; the lowest 2% begin near 16. The list shows a part of the results.

For the experiment, the system named is U2OS. The experiment is described as follows: nuclei count (viability) relative to DMSO (% of DMSO); higher = more viable cells. To be noted: 10 µM; 24 h. As to the method: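 Primary image-based screen in U2OS cells: compounds at 10 uM for 24 h, then a 1 h o-propargyl-puromycin (OPP) pulse, click labelling, and high-throughput microscopy. Mean cytoplasmic OPP intensity and nuclei count were normalised to DMSO wells within each plate (DMSO = 100) and averaged over triplicate plates.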
`CN1C(=O)[C@]23CC4=CC=C[C@H](O)[C@H]4N2C(=O)[C@@]1(CO)SS3` [Gliotoxin] came in with a nuclei count of 36.
Next, `C[C@]12CC[C@@H](O)C[C@@H]1CC[C@@H]1[C@@H]2CC[C@]2(C)C(=O)CC[C@@H]12` [Androsterone]: 98.3.
Next, `CNCC(O)c1ccc(O)cc1` (racemic) [(+,-)-Synephrine]: 102; `C=C[C@H]1CN2CC[C@H]1C[C@H]2[C@H](O)c1ccnc2ccccc12` [Cinchonidine]: 103.
With `Cc1cccc(C(C)c2c[nH]cn2)c1C` (stereo not drawn) [Medetomidine HCl] the figure was 105.
`Cc1cccc(C(C)c2c[nH]cn2)c1C` (stereo not drawn) [Medetomidine hydrochloride] came in with a nuclei count of 88.9.
Next, `COc1ccc2c(c1)[C@]13CCCC[C@@H]1[C@H](C2)N(C)CC3` [Dextromethorphan hydrobromide monohydrate]: 107; `Clc1cnc(Oc2ccc(Oc3ncc(Cl)cc3Cl)cc2)c(Cl)c1`: 102; `COC[C@H]1OC(=O)c2coc3c2[C@@]1(C)C1=C(C3=O)[C@@H]2CCC(=O)[C@@]2(C)C[C@H]1OC(C)=O` [Wortmannin]: 95.8 ± 5.6.
Next, `CN(C(=O)Cc1ccc(Cl)c(Cl)c1)[C@H](CN1CCCC1)c1ccccc1` [ICI-199,441 hydrochloride]: 100.
The molecule `CC(=O)N(C)c1cccc(-c2ccnc3c(C(=O)c4cccs4)cnn23)c1` [Indiplon] returned a nuclei count of 105.
With `CC1(C)CC(O)CC(C)(C)N1[O]` the figure was 99.9; with `CC1(C)CC(O)CC(C)(C)N1[O]` [Tempol (4-Hydroxy-TEMPO)], 98.6; with `C[C@H](Cc1ccc(OCC(=O)O)cc1)NC[C@H](O)c1cccc(Cl)c1`, 103.
With `N[C@@H](Cn1oc(=O)[nH]c1=O)C(=O)O` [L-Quisqualic acid] the figure was 99.1; with `CN1[C@@H]2CC(O)C[C@H]1[C@@H]1O[C@@H]12` (stereo partly drawn) [Scopine], 105.
With `S=C(NC1CCCCC1)N1CCC(c2cnc[nH]2)CC1` [Thioperamide maleate] the figure was 108; with `S=C(NC1CCCCC1)N1CCC(c2cnc[nH]2)CC1` [Thioperamide], 75.5; with `C#C[C@]1(O)CC[C@H]2[C@@H]3CCC4=CC(=O)CC[C@]4(C)[C@H]3CC[C@@]21C` [Ethisterone], 99.3 ± 2.2.
The molecule `CC(C)[N+](C)(CCC(C(N)=O)(c1ccccc1)c1ccccc1)C(C)C` [Isopropamide iodide] had a nuclei count of 104.
`O=C([O-])c1ccccc1-c1c2cc(Br)c(=O)cc-2oc2[c]([Hg+])c([O-])c(Br)cc12.[Na+].[Na+].[OH-]` [Merbromin] had a nuclei count of 105.
Take `CC(=O)O[C@@]12CO[C@@H]1C[C@@H](O)[C@@]1(C)C(=O)[C@H](O)C3=C(C)[C@@H](O)C[C@@](O)([C@@H](OC(=O)c4ccccc4)[C@H]21)C3(C)C` [10-DAB (10-Deacetylbaccatin)]: the nuclei count is 100.
With `O=c1[nH]c2ccccc2n1CCCN1CCC(n2c(=O)[nH]c3cc(Cl)ccc32)CC1` [Domperidone], the nuclei count is 100 ± 6.
Next, `CC(C)CC(N(C)C)C1(c2ccc(Cl)cc2)CCC1` (stereo not drawn) [Sibutramine HCl]: 98; `C=CCN1CC[C@]23c4c5ccc(O)c4O[C@H]2/C(=N/NC(=O)c2ccccc2)CC[C@@]3(O)[C@H]1C5` [Naloxone benzoylhydrazone]: 104; `c1cc2c(cc1[C@H]1OC[C@H]3[C@@H]1CO[C@@H]3c1ccc3c(c1)OCO3)OCO2` [Sesamin (Fagarol)]: 87.7.
Molecule `CC(C)C(C(=O)OC(C#N)c1cccc(Oc2ccccc2)c1)c1ccc(Cl)cc1` (stereo not drawn) [Fenvalerate] had a nuclei count of 99.7.
Next, `COc1ccc(CN2CCNCC2)c(OC)c1OC` [Trimetazidine dihydrochloride]: 113; `COc1ccc2c(c1)c(CCN1CCOCC1)c(C)n2C(=O)c1cccc(Cl)c1Cl`: 107; `C[C@]12CC[C@H]3[C@@H](CCC4=CC(=O)CC[C@@H]43)[C@@H]1CC[C@@H]2O` [Nandrolone]: 105.
`N#Cc1ccc(N2CCN(C(=O)COc3ccc4[nH]cc(CCN)c4c3)CC2)cc1` [Donitriptan hydrochloride] gave a nuclei count of 90.
Next, `O=C(N[C@H]1CN2CCC1CC2)c1ccc(Cl)cc1`: 94.6.
For the molecule `CN1Cc2ccccc2[C@@H]2c3cccc4[nH]cc(c34)C[C@H]21`, the nuclei count was found to be 51.
Next, `c1ccc(CCCCN2CCC(c3ccccc3)CC2)cc1` [4-PPBP maleate]: 109.
Molecule `C[C@H](N)Cc1cnc[nH]1` [(S)-(+)-a-Methylhistamine dihydrobromide] displayed a nuclei count of 102.
In the case of `C=C(C)[C@H]1CN[C@H](C(=O)O)[C@H]1CC(=O)O` [Kainic acid], the nuclei count stood at 90.9.
Regarding `CN(C)CCN(C)CCc1ccc(Cl)c(Cl)c1` [BD 1047 dihydrobromide], the nuclei count was 113.
`CN1[C@@H]2CC[C@H]1C[C@@H](OC(=O)[C@H](CO)c1ccccc1)C2` [Hyoscyamine (L)] gave a nuclei count of 90.8.
With `CN1[C@@H]2CC[C@H]1C[C@@H](OC(=O)[C@H](CO)c1ccccc1)C2` [Hyoscyamine (Daturine)] the figure was 108; with `C[C@H]([C@H](O)CCC(C)(C)O)[C@H]1CC[C@@]2(O)C3=CC(=O)[C@@H]4C[C@@H](O)[C@@H](O)C[C@]4(C)[C@H]3CC[C@]12C` [Ecdysone], 104; with `O=C(O)Cc1cccnc1C(=O)O` [Homoquinolinic acid], 96.7.
`CN[C@@H]1C[C@@H](c2ccc(Cl)c(Cl)c2)c2ccccc21` [Indatraline hydrochloride] gave a nuclei count of 87.5 ± 20.
With `O=[N+]([O-])c1cc(O)c(O)c([N+](=O)[O-])c1` the figure was 107.
Turning to `Clc1ccc(C2=CCCC3CCC2N3)cn1` (stereo not drawn) [UB 165 fumarate], the nuclei count came to 103.
With `CC1=CC(=O)c2c(O)cccc2C1=O` [Plumbagin] the figure was 17.8; with `O=[N+]([O-])O[C@@H]1CO[C@H]2[C@@H]1OC[C@@H]2O` [Isosorbide mononitrate], 108.
With `CCCCCCC[n+]1ccc(-c2cc[n+](CCCCCCC)cc2)cc1` [DHBP dibromide] the figure was 99.4; with `CO[C@@H]1[C@H](OC(=O)NC(=O)CCl)CC[C@]2(CO2)[C@H]1[C@@]1(C)O[C@@H]1CC=C(C)C`, 92.6; with `C=CCN1C[C@H](C)N([C@H](c2ccc(C(=O)N(CC)CC)cc2)c2cccc(OC)c2)C[C@H]1C`, 91.4.
With `C=CCN1C[C@H](C)N([C@H](c2ccc(C(=O)N(CC)CC)cc2)c2cccc(O)c2)C[C@H]1C` the figure was 97.1; with `N=C(N)NN` [Aminoguanidine hydrochloride], 105.
Molecule `C[C@H](N)[C@H](O)c1ccc(O)c(O)c1` [Levonordefrin] showed a nuclei count of 98.9.
Take `CC(C)N(CCC(C(N)=O)(c1ccccc1)c1ccccn1)C(C)C` (stereo not drawn) [Disopyramide]: the nuclei count turned out to be 95.2.
Molecule `OC(Cc1ccncc1)C(Cl)(Cl)Cl` (stereo not drawn) registered a nuclei count of 101.
With `CS(=O)(=O)Nc1ccc(Cc2noc(-c3ccc4[nH]cc(CCN)c4c3)n2)cc1` the figure was 102; with `Cc1cccc(C)c1NC(=O)CN1CCCC1=O` [Nefiracetam (Translon)], 102.
Molecule `CC[C@@H](C(=O)[C@@H](C)[C@@H](O)[C@H](C)[C@@H]1O[C@@H]([C@@H](CC)C(=O)O)CC[C@@H]1C)[C@H]1O[C@]2(C=C[C@@H](O)[C@]3(CC[C@@](C)([C@H]4CC[C@](O)(CC)[C@H](C)O4)O3)O2)[C@H](C)C[C@@H]1C` [Salinomycin (Procoxacin)] registered a nuclei count of 97.2.
With `C(#CCN1CCCC1)CN1CCCC1` [Tremorine dihydrochloride], the nuclei count came out at 103.
With `C[C@]12CCC(=O)C=C1C=C[C@@H]1[C@@H]2CC[C@@]2(C)[C@H]1CC[C@@]2(O)CCC(=O)O` [Canrenoic acid potassium salt] the figure was 104.
`CCCC[N+]1(C)[C@@H]2C[C@@H](OC(=O)[C@H](CO)c3ccccc3)C[C@H]1[C@@H]1O[C@@H]12` (stereo partly drawn) [Butylscopolamine bromide (Scopolamine butylbromide)]: the nuclei count came out at 103.
With `N#CC(C#N)=Cc1ccc(O)c(O)c1` [AG 18 (Tyrphostin 23)] the figure was 103; with `Cc1cccc(Cc2c[nH]cn2)c1C` [Detomidine HCl], 108.
Turning to `CCCC(C)C1(CC)C(=O)NC(=O)NC1=O` (stereo not drawn) [Pentobarbital], the nuclei count came to 96.1.
With `C[C@]12C[C@H]3S[C@H]3C[C@@H]1CC[C@@H]1[C@@H]2CC[C@]2(C)[C@@H](O)CC[C@@H]12` [Epitiostanol] the figure was 105; with `COP(=O)(OC)C(O)C(Cl)(Cl)Cl` (stereo not drawn) [Trichlorfon], 102; with `CNC1CC(N)C(O)C(OC2OC(CO)C(O)C3OC4(OC(C(N)CO)C(O)C(O)C4O)OC23)C1O` (stereo not drawn) [Hygromycin B], 105.
With `Cn1cc(C2=C(c3cn(C4CCN(Cc5ccccn5)CC4)c4ccccc34)C(=O)NC2=O)c2ccccc21` the figure was 111; with `Cc1ccc2cc3c(ccc4ccccc43)c3c2c1CC3` [3-Methylcholanthrene], 93.4.
Next, `C[C@H](CCC(=O)O)C[C@H](C)C[C@H](C)C(=O)/C=C(\O)[C@H](C)C[C@H](C)C/C=C/[C@@H](C)[C@@H](O)[C@@H](C)[C@@H](O)C[C@@H]1CC[C@@](C)([C@H]2CC[C@@](C)([C@@H](C)O)O2)O1` [Ionomycin]: 25.8; `C=CCN1CC[C@]23c4c5ccc(O)c4O[C@H]2C(=O)CC[C@@]3(O)[C@H]1C5` [Naloxone hydrochloride]: 94.6 ± 12.
The molecule `C[C@@H]1CC[C@@]2(OC1)O[C@H]1C[C@H]3[C@@H]4CC=C5C[C@@H](O[C@@H]6O[C@H](CO)[C@@H](O[C@@H]7O[C@@H](C)[C@H](O)[C@@H](O)[C@H]7O)[C@H](O)[C@H]6O[C@@H]6O[C@@H](C)[C@H](O)[C@@H](O)[C@H]6O)CC[C@]5(C)[C@H]4CC[C@]3(C)[C@H]1[C@@H]2C` [Dioscin (Collettiside III)] came in with a nuclei count of 9.01.
Molecule `COC(=O)[C@@H](N)CCCNC(=N)N[N+](=O)[O-]` had a nuclei count of 103.
Next, `COC(=O)[C@@H](N)CCCNC(=N)N[N+](=O)[O-]` [L-NAME hydrochloride]: 81.3.
